Reference: ChEMBL document CHEMBL4888484, “Replenishing the malaria drug discovery pipeline: Screening and hit evaluation of the MMV Hit Generation Library 1 (HGL1) against asexual blood stage Plasmodium falciparum ,using a nano luciferase reporter read-out” (2022)
The whole screen tested about 150,000 compounds, of which about 540 (0.36%) showed an effect of 50% or more. This is one part of the list.

The molecules below were run on Plasmodium falciparum (assay: Primary screen in NF54 nanoGlo assay, in single point, at 2uM, 72h; a lower Z score goes with more inhibition). Settings: timepoint 72 hour.
Type: functional, Erythrocyte
In the case of `CC(=O)Oc1c(C)cc(CNCc2cnc(C)cn2)cc1C`, the “% Inhibition” value was 11% and the Z score was -1.62.
In the case of `O=C1CCC(CCC(=O)N2CCCC2c2nc3cc(F)ccc3[nH]2)(Cc2ccc3c(c2)OCO3)N1` (stereo unspecified), the “% Inhibition” value was 2% and the Z score was -0.25.
For `CCc1cc(OC)ccc1CN(C)Cc1nncn1C`, the “% Inhibition” value was -14% and the Z score was 1.77.
For `C[C@@H](Cc1cccs1)NC(=O)CCS(C)(=O)=O`, the “% Inhibition” value was -8% and the Z score was 0.98.
With `CN(C(=O)C1CC1c1ccccc1)C1(c2ccccc2)CCCCC1=O` (stereo unspecified) the “% Inhibition” value was -5% and the Z score was 0.71.
In the case of `CCCCN1C(=O)CC[C@@H]2CN(c3nnnn3-c3ccccc3)CC[C@@H]21`, the “% Inhibition” value was 0% and the Z score was 0.04.
For `Cc1nnc2n1CCN([C@@H](C)C(=O)Nc1ccc(Cl)cn1)C2`, the “% Inhibition” value was -7% and the Z score was 1.08.
With `O=S(=O)(Cc1ccon1)NCc1cccs1` the “% Inhibition” value was -12% and the Z score was 1.16.
In the case of `COCCOCCC(=O)N1CC=C(c2cccc3ccccc23)CC1`, the “% Inhibition” value was -12% and the Z score was 1.18.
In the case of `O=C(NCCc1ccc(O)cc1)N1CCN(S(=O)(=O)N2CCOCC2)CC1`, the “% Inhibition” value was -3% and the Z score was 0.5.
`O=C(O)c1cc(C2CC2)n2nc(-c3cccc(F)c3)cc2n1` was tested, and the “% Inhibition” value was 0% and the Z score was -0.05.
For `CCOCCC(=O)Oc1c(C)cc(C#N)cc1C`, the “% Inhibition” value was -6% and the Z score was 1.06.
For `Cc1noc(C)c1COC(=O)c1cc(C2CC2)nc2ccccc12`, the “% Inhibition” value was 0% and the Z score was -0.05.
In the case of `Cc1ccc(CN2CCN(C(=O)CCc3n[nH]c(C)c3C)CC2=O)cc1C`, the “% Inhibition” value was -3% and the Z score was 0.44.
With `CNC(=O)[C@@H]1C[C@@H](Nc2ccnc(OC)c2C#N)CN1Cc1ccccn1` the “% Inhibition” value was 2% and the Z score was -0.32.
In the case of `Cn1ccnc1C(N[C@H]1CCCN(C(=O)OC(C)(C)C)C1)C1CC1` (stereo partly specified), the “% Inhibition” value was -11% and the Z score was 1.18.
With `CCCc1nnc(N[C@H]2CC(=O)N(C3CC3)C2)s1` the “% Inhibition” value was -16% and the Z score was 1.57.
With `Cc1cccc(C2CC(C(=O)N(C)Cc3ccco3)CN(Cc3ccccc3)C2)c1` (stereo unspecified) the “% Inhibition” value was -12% and the Z score was 1.4.
`O=C1N(Cc2ccc(F)c(F)c2)CCC[C@@]1(O)CN1CCC2(CC1)OCCO2` was tested, and the “% Inhibition” value was -8% and the Z score was 1.02.
With `Cc1ccc(C(=O)NCc2cncn2C2CC2)n1C(F)F` the “% Inhibition” value was -5% and the Z score was 0.73.
`COc1nscc1CN(C)c1ncnc2[nH]ncc12` was tested, and the “% Inhibition” value was -8% and the Z score was 1.54.
For `Cc1nc(CCN)cc(N(C)C[C@H]2Cc3ccccc3O2)n1`, the “% Inhibition” value was -8% and the Z score was 1.11.
For `COc1ccc(CN[C@@H](C)CN2CCCC2=O)cc1OCc1cccnc1`, the “% Inhibition” value was -16% and the Z score was 2.48.
With `COc1cc(C(=O)NC(C(C)C)C(C)C)cc(OC)c1OC` the “% Inhibition” value was 4% and the Z score was -0.75.
`Cn1nc(CN2CCC[C@H](Oc3ccc(Cl)c(Cl)c3)C2)[nH]c1=O` was tested, and the “% Inhibition” value was 5% and the Z score was -0.6.
With `CC(C)N1CCC[C@H](n2cnc3c2c(=O)n(C)c(=O)n3C)C1=O` the “% Inhibition” value was 13% and the Z score was -1.47.
`CCCS(=O)(=O)c1ccc(Cl)cc1N` was tested, and the “% Inhibition” value was -15% and the Z score was 2.18.
In the case of `C[C@@H]1CN(C(=O)c2ccoc2C(F)(F)F)C[C@H](C)N1CCO`, the “% Inhibition” value was 23% and the Z score was -2.94.
`O=c1cccc(-c2noc([C@@H]3CCCN3Cc3ccccc3)n2)[nH]1` was tested, and the “% Inhibition” value was 9% and the Z score was -1.76.
In the case of `Cc1ccc2nc(-c3ccc(C)c(NC(=O)c4ccc(-c5cccc(Cl)c5)o4)c3)oc2c1`, the “% Inhibition” value was 30% and the Z score was -3.41.
With `CCOC(=O)N(C)OC(=O)Nc1ccc(Cl)c(Cl)c1` the “% Inhibition” value was -11% and the Z score was 2.09.
With `CC1CCCC(C)N(C(=O)c2ccc(S(N)(=O)=O)c(F)c2)C1` (stereo unspecified) the “% Inhibition” value was 1% and the Z score was -0.15.
In the case of `c1ncn(C[C@H]2CCCCN2CC2CCCC2)n1`, the “% Inhibition” value was -8% and the Z score was 1.06.
With `Cc1cc(C)cc(-n2nc(-c3ccccc3)nc2[C@H]2CC(=O)N(C)C2)c1` the “% Inhibition” value was -14% and the Z score was 1.95.
In the case of `CCC1(O)CCN(C(=O)c2ccc3nccc(C)c3c2)CC1`, the “% Inhibition” value was 0% and the Z score was -0.06.
`O=C(c1cn(-c2ccccc2)nc1-c1ccc2c(c1)OCCO2)n1nnc2ccccc21` was tested, and the “% Inhibition” value was -8% and the Z score was 1.01.
With `CCOc1ccccc1NC(=O)Cn1nc(C(=O)N2CCOCC2)cc1C1CC1` the “% Inhibition” value was -10% and the Z score was 1.94.
In the case of `CCCn1nnnc1CNc1cccc(S(C)(=O)=O)c1`, the “% Inhibition” value was -15% and the Z score was 1.26.
With `CN1CCC[C@@H]1CN(C)S(=O)(=O)C1(C)CC1` the “% Inhibition” value was -8% and the Z score was 0.74.
In the case of `Cn1cc(NC(=O)c2cnn(CCC(F)(F)F)c2)cn1`, the “% Inhibition” value was 12% and the Z score was -1.67.
For `CCOc1ccnc(NCC[C@H]2CCCCN2C)n1`, the “% Inhibition” value was -10% and the Z score was 1.07.
For `O=C1N(C2CCOCC2)C[C@H]2CN(Cc3cccc(OC(F)(F)F)c3)CCN12`, the “% Inhibition” value was 15% and the Z score was -1.72.
With `N#Cc1cc(-c2cccc(C(=O)NCC(=O)N3CCCC3)c2)ccc1F` the “% Inhibition” value was -9% and the Z score was 1.5.
